Results published in PubChem BioAssay AID1645882 (National Center for Advancing Translational Sciences (NCATS), 2021).
Screen size: about 16,000 compounds; about 120 (0.75%) were called active. Another 4% or so got no clear call; they are omitted. The call rests on the fitted dose curve; in most records, active means well fitted inhibition curve with a large enough effect; inconclusive means small, poorly fitted or top-dose-only effect; inactive means no such curve, though single readings can be large or run the other way. This is one part of the list.

Biological target: Rap guanine nucleotide exchange factor 3 (Homo sapiens) (UniProt O95398)
Experiment: Validation qHTS for antagonist of cAMP-regulated guanine nucleotide exchange factor 3 (EPAC1); further: nearly all actives have a fitted effect of over 75% in size;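 on activity change, negative = inhibition: plate controls were DMSO for no effect and ATA control for full effect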
Conditions: EPAC1 Rap1B-BODIPY-GDP exchange, fluorescence; series mostly up to 150 µM; activity change, negative = inhibition: at the top concentration
Summary of the method: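 EPAC1 (100 nM) mixed with 250 nM RAP1B-BODIPY-GDP and 50 uM GDP; compounds in concentration series, 5 min at room temperature. Fluorescence (ex 480/em 540 nm) read every 5 min for 30 min; normalized to ATA control and DMSO.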
Potency means the concentration at half of the fitted maximal effect.

Sequence of UniProt O95398 (O95398 whole entry, looked up): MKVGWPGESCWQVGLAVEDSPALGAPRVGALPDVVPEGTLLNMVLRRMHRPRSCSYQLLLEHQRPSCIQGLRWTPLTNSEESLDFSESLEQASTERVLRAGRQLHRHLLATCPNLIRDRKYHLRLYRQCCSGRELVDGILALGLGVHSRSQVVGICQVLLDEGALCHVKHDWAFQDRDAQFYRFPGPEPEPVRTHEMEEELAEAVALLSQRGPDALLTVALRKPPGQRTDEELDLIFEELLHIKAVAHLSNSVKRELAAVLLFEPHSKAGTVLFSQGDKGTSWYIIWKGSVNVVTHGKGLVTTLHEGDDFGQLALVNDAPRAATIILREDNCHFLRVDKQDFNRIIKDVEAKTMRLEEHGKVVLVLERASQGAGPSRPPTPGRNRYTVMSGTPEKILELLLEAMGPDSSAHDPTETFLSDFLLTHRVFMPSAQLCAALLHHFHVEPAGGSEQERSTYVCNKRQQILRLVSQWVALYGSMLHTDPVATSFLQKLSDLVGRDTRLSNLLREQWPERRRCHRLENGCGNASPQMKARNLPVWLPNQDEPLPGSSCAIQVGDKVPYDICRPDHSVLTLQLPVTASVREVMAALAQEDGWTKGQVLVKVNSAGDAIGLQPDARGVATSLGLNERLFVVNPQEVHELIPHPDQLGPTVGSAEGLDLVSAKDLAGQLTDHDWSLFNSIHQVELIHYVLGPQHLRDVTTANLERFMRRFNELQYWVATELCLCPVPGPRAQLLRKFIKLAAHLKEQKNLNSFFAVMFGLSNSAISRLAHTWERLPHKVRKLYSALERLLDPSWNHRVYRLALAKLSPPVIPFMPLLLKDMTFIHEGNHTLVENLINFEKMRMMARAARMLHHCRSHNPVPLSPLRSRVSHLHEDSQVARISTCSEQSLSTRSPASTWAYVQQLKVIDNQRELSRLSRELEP

SMILES | activity change, negative = inhibition | Potency
CC(C)=CCc1c(O)cc2occ(-c3ccc4c(c3)OCO4)c(=O)c2c1O | inactive: -9.03% | –
O=S(=O)(c1ccccc1)N1CCC[C@@]2(CCN(c3ncccn3)C2)C1 | inactive: 19.2% | –
NC(CCC(=O)NCS(=O)(=O)O)C(=O)O (stereo not drawn) | inactive: 16.6% | –
N[C@@H](C(=O)O)c1ccc(O)c(C(=O)O)c1 | inactive: 6.82% | –
Cc1cc(CC(C)CC(C)(C)C)n(O)c(=O)c1 (stereo not drawn) (tested in a mixture with another compound) | inactive: -1.43% | –
COc1ncc2nc(C)c(=O)n(-c3ccccc3)c2n1 | inactive: -2.6% | –
OC1(c2cccnc2)CCN(Cc2ccc3c(c2)CN(Cc2cc4ccccc4s2)CCO3)CC1 | inactive: -8.5% | –
C1=C/C(=C2/C=Cc3ccccc32)c2ccccc2N1 | inactive: 10.6% | –
CCn1cc(C(=O)O)c(=O)c2cc(F)c(N3CCNCC3)cc21 | inactive | –
COc1ccc(CNc2nc(-c3ccccc3CN(C)C)nc3ccccc23)c(OC)c1 | inactive: 1.05% | –
CC1C(=O)CC2C3(C)CCC2(C(C)C(=O)O)C(=O)C13 (stereo not drawn) | inactive: 17.4% | –
CN1CCN(c2nc(-c3cccc(C#N)c3)nc3ccccc23)CC1 | inactive: 19.4% | –
N#Cc1cccc(CN2CCC(=O)N([C@H](CO)c3ccccc3)CC2)c1 | inactive: 0.517% | –
Cc1ccc(F)cc1S(=O)(=O)NCc1nc(N2CCCC2)c2cccc(C)c2n1 | inactive: 5.1% | –
COc1cccc(Cc2nc3cccnc3n2C2CCN(Cc3ccc(C)s3)CC2)c1 | inactive: 15.4% | –
N[C@H](C(=O)O)[C@H](Cc1ccccc1)C(=O)O | inactive: 3.71% [at 75.8 µM] | –
Cc1cc(C)cc(C(=O)NCCn2cc(C(=O)N3CCSCC3)nn2)c1 | inactive: 1.45% | –
CC(=O)OC[C@@]1(O)C[C@@]23CC[C@@H]4c5ccoc5CC[C@@]4(C)[C@@H]2CCC1C3 | inactive: 29.2% | –
O=C1C[C@H](c2ccccc2)Oc2cc(O)cc(O)c21 | inactive: 7.73% | –
O=S(=O)(c1ccccc1)N1CCC2(CCN(c3cccc(-c4ccccc4)c3)CC2)CC1 | inactive: 15% | –
Cc1nc(C)n(CC(=O)NCC2Cc3cc(-c4cccc(OC(F)(F)F)c4)ccc3O2)n1 (stereo not drawn) | inactive: -16% | –
CN1CCN(c2ncnc3ccc(-c4ccccc4C#N)cc23)CC1 | inactive: 25% | –
COc1cccc(C(=O)N2CCc3c(C(=O)NC(C)c4ccco4)c(OC)cc(=O)n3CC2)c1OC (stereo not drawn) | inactive: 3.99% | –
COc1ccc2[nH]cc(CCNc3ncnc4ccc(-c5cccnc5)cc34)c2c1 | inactive: -7.06% | –
NC(=O)C[C@@H](N)C(=O)O | inactive: 20.1% | –
COc1ccc(-n2c(=O)c(-c3cccs3)nc3cnc(Nc4cccc(OC)c4)nc32)cc1 | inactive: 66.3% | –
CCCCCCCCCCCCCCCCC(C(=O)O)C(O)(CC(=O)O)C(=O)O (stereo not drawn) | – | active: 35.5 µM

SMILES | activity change, negative = inhibition | Potency
Cc1nc2c(OCc3ccccc3)cccn2c1CC#N | inactive | –
COCCC1CCCCN1Cc1nc(N2CCCCC2)c2cc(OC)c(OC)cc2n1 (stereo not drawn) | inactive: 14.3% | –
c1cncc(OC2CCN(Cc3ccc4c(c3)CN(Cc3nc5ccccc5s3)CCO4)CC2)c1 | inactive: 11% | –
COCc1c(C(=O)N2CCCCCC2)cnn1-c1nccc(-c2cccs2)n1 | inactive: 14.5% | –
COc1ccccc1/C=C\C(=O)O | inactive: 8.81% | –
COC(=O)N1CCC2(CCCN(Cc3ccccc3)C2)CC1 | inactive: 5.96% | –
CCOC(=O)C1=C(C)NC(C)=C(C(=O)OC)C1c1cccc([N+](=O)[O-])c1 (stereo not drawn) | inactive | –
COCCOC(=O)C1=C(C)NC(C)=C(C(=O)OC(C)C)[C@@H]1c1cccc([N+](=O)[O-])c1 | inactive: -24.9% | –
CCCOc1ccc2nc(NC(=O)OC)[nH]c2c1 | inactive: 8.3% | –
FC(F)(F)c1cnc(-c2cc3c(c(OCC4CCCO4)c2)OCCN(Cc2cccn2-c2nccs2)C3)c(Cl)c1 (stereo not drawn) | inactive: 11% | –
Cc1cccc(CNc2cc(-c3ccoc3)ncn2)c1 | inactive: 12.8% | –
CC1CCC2C(C)(C)C3CC12CC[C@]3(C)O (stereo partly drawn) | inactive: -7.3% | –
Cc1ccc(SC[C@H](C)CN2CC[C@H](C(C)(C)C)CCC2=O)cc1 | inactive: -9.39% | –
CN1CCN(c2ncc3nc(-c4ccc(F)cc4)c(=O)n(Cc4cccs4)c3n2)CC1 | inactive: -5.94% | –
CCCCNC(=O)[C@@H]1CC=C[C@@H]2CCN(Cc3ccccc3)C(=O)[C@@H]21 | inactive: 7.23% | –
CN[C@@H]1[C@@H](O)[C@@H](O[C@@H]2[C@H](O)[C@H](O[C@H]3OC(CN)=CC[C@H]3N)[C@@H](N)C[C@H]2N)OCC1(C)O (stereo partly drawn) | inactive: 20.3% | –
COC(=O)/C(=C1\OC(=O)C(c2ccccc2)C1=O)c1ccccc1 (stereo not drawn) | inactive: 13.4% | –
COc1cc2ccc(=O)oc2c(O)c1OCC=C(C)C | inactive: -4.98% | –
COC(=O)[C@@H]1CCCN1Cc1ccc2c(c1)CN(Cc1ccc3c(c1)OCCO3)CCO2 | inactive: -8.07% | –
CCCCOc1ccc(OCCCN2CCOCC2)cc1 | inactive | –
CC1CCc2cc(F)cc3c(=O)c(C(=O)O)cn1c23 (stereo not drawn) | inactive: 13.3% | –
O=C(NCC1CCCCN1)c1cc(OCC(F)(F)F)ccc1OCC(F)(F)F (stereo not drawn) | inactive | –
COc1cc2c(cc1OC)-c1c(oc3cc(O)cc(O)c3c1=O)CO2 | inactive: -3.34% | –
OC[C@@H](O)[C@H](O)[C@H](O)[C@@H](O)CO | inactive | –
Cc1ccc(SC[C@H](C)CN2CC[C@H](O)CCC2=O)cc1 | inactive: -2.08% | –
Cc1nnsc1C(=O)NCC1Cc2cccc(-c3ncccn3)c2O1 (stereo not drawn) | inactive: 17% | –
